Results: PubChem BioAssay AID624296 (National Center for Advancing Translational Sciences (NCATS), 2012)
The campaign covered roughly 350,000 compounds. About 9,900 (2.8%) were called active. The inconclusive results got no clear call from the source; some entries with a clear call stand among them for comparison. Calls come from the whole dose curve; as a rule, active = well fitted activation curve with a large enough effect; inconclusive = small, poorly fitted or top-dose-only effect; inactive = no such curve, though single readings can be large or run the other way. No potency is given beside an inconclusive call; the fits are too rough.

Experiment: A quantitative high throughput screen for small molecules that induce DNA re-replication in MCF 10a normal breast cells. For activity, positive = re-replication: % of control where 0% means no effect. Note: nearly all actives have a fitted effect of over 50% in size.
Settings: MCF 10A DNA re-replication, Hoechst nuclear intensity, 48 h; activity, positive = re-replication: at 46.1 µM (top of the series)
Source text: H Molecular Libraries Probe Production Network [MLPCN]
NIH Chemical Genomics Center [NCGC]
Assay Provider: Melvin DePamphilis, NICHD, NIH
Eukaryotic cells normally restrict genome duplication to once per cell division. When this process is aberrant, DNA re-replication occurs when cells reinitiate DNA replication before the first round of replication is complete. DNA re-replication induces the DNA damage response, arrests cell proliferation, and triggers apoptosis. The cell cycle components cyclin A, Cdt-1, Cdc6 and geminin are critical regulators of this process and their misregulation results in DNA re-replication in normal and cancer cells. To identify compounds that induce re-replication in normal cells, an image-based assay was used to measure DNA content of nuclei, as detected by the fluorescent DNA binding dye, Hoechst. Cell nuclei were imaged by a fluorescence scanning plate imager and compounds that induce DNA re-replication were identified by the increase of nuclei with elevated fluorescence intensity
For screening, 250 cells in 5 uL/well were dispensed into black clear 1536-well plates (Aurora) using a solenoid-based dispenser. Following transfer of 23 nL compound or DMSO vehicle by a pin tool, the plates were incubated 48 hr at 37 C and 5% CO2. After addition of 1 uL/well Hoescht stain, the plates were incubated 40 min at 37 C, 5% CO2 and total intensity of fluorescent objects (nuclei) were enumerated by an Acumen Explorer Ex3 (TTP LabTech) fluorescence scanning plate imager (405 nm excitation, 500-530 nm emission).
Keywords: NIH Roadmap, MLPCN, MLI, MLSMR, qHTS, NCGC, DNA replication, cancer
Potency is the fitted concentration of half-maximal effect; tags give direction and shape of the fitted curve.

| Structure (SMILES) | Potency | activity, positive = re-replication |
| --- | --- | --- |
| CC(=O)c1cnc2c(-c3cccc(Br)c3)cnn2c1C | inconclusive [activator, single point] | – |
| COc1ccc(C2NC(=O)c3ccccc3O2)cc1 (configuration not stated) | – | inactive: 4.27% |
| C=CCN1C(=O)/C(=C\c2cccc(OC(=O)c3ccco3)c2)SC1=S | inconclusive [activator, single point] | – |
| CC(C)C[C@H](NC(=O)N1CCn2c1nc1ccccc12)C(=O)NCc1ccc2c(c1)OCO2 | – | inactive: -0.753% |
| CN1CCN(c2cc3c(c4c2[nH]c2ccccc24)C(=O)CC(C)(C)C3)CC1 | active: 20.6 µM | – |
| COc1ccccc1NC(=O)N1CCC(c2nc3cc(C)c(C)cc3[nH]2)CC1 | active: 3.66 µM | – |
| CCOC(=O)N1CCN(c2nc3ccccc3nc2C(C#N)C(=O)NCCc2ccccc2)CC1 (configuration not stated) | inconclusive [activator, full curve, poor fit] | – |
| CCCN1CCc2c(sc3nc(SCC)n(-c4ccccc4)c(=O)c23)C1 | inconclusive [activator, single point] | – |
| O=C(N/N=C/c1ccc(-c2cccc(C(F)(F)F)c2)o1)c1ccccc1O | inconclusive [activator, full curve] | – |
| Cc1c(N/C=C/C(=O)c2ccc(Cl)cc2)c(=O)n(-c2ccccc2)n1C | inconclusive [activator, single point] | – |
| CCOC(=O)c1cnc2ccc(OCC)cc2c1N1CCN(c2ccccc2OC)CC1 | active: 18.4 µM | – |
| N=c1n(CCN2CCCCC2)c2ccccc2n1CC(O)c1cccc(Br)c1 (configuration not stated) | inconclusive [activator, single point] | – |
| O=C(N/N=C/c1ccc(O)cc1)c1ccc(COc2cc(Cl)ccc2Cl)o1 | active: 18.4 µM | – |
| CC(OC(=O)c1cc(S(=O)(=O)N2CCOCC2)ccc1F)C(=O)NC1CCCCC1C (configuration not stated) | – | inactive: 0.447% |
| C=CCN(CC=C)S(=O)(=O)c1ccc2nc(NC(=O)C3CCCO3)sc2c1 (configuration not stated) | inconclusive [activator, single point] | – |
| C/C(=C\C(=O)O)CC(=O)O | inconclusive [activator, single point] | – |
| O=C(O)c1cc(-c2ccc(/C=N/Nc3ccc([N+](=O)[O-])cn3)o2)ccc1Cl | inconclusive [activator, single point] | – |
| C=CCOc1ccc(/C=C/C(=O)OCC(=O)NCc2cccc(OC)c2)cc1 | inconclusive [activator, partial curve, poor fit] | – |
| c1ccc(C2CN3CCSC3=N2)cc1 (configuration not stated) | inconclusive [activator, full curve, poor fit] | – |
| COc1c(C)cc(S(=O)(=O)NCc2ccccn2)c(C)c1C | inconclusive [activator, single point] | – |
| O=C(CSC1=Nc2ccccc2C2CC=NN12)Nc1ccc2c(c1)OCO2 (configuration not stated) | inconclusive [activator, single point] | – |

| Structure (SMILES) | Potency | activity, positive = re-replication |
| --- | --- | --- |
| CC(C)(Oc1ccc(Cl)cc1)C(=O)NCC(c1ccco1)N1CCCCC1 (configuration not stated) | inconclusive [activator, partial curve] | – |
| N#CC1=C(Nc2ccccc2)SC=C(c2ccc(Br)cc2)N=C1N1CCOCC1 | inconclusive [activator, single point] | – |
| O=C1C=C(N2CCCCC2)C2(CCCCC2)O1 | – | inactive: 0.761% |
| CC(C)(C)OC(=O)N1CCC(c2c(C(=O)NCC3CCN(C4CCCC4)C3)cnn2-c2cccc(Cl)c2)CC1 (configuration not stated) | inconclusive [activator, partial curve, poor fit] | – |
| O=C(CCCCn1c(=O)[nH]c2ccsc2c1=O)NCCc1ccccc1 | – | inactive: 0.822% |
| CCOC(=O)N1CCN(C2=Nc3cccc4cccc2c34)CC1 | inconclusive [activator, partial curve, poor fit] | – |
| O=C(NCc1ccco1)c1cccnc1-c1nc2ccccc2s1 | – | inactive: 3.04% |
| CCC1Sc2ccc(S(=O)(=O)CCC(=O)N3CCc4ccccc43)cc2NC1=O (configuration not stated) | inconclusive [activator, single point] | – |
| CCNC(=S)N(Cc1cc2c(C)ccc(C)c2[nH]c1=O)C1CCCC1 | inconclusive [activator, partial curve, poor fit] | – |
| COc1ccc(-c2nnn(Cc3nc(N)nc(N4CCCCC4)n3)n2)cc1 | inconclusive [activator, single point] | – |
| Cc1ccc(S(=O)(=O)Cc2ccc(C(=O)N3CCC(C)CC3)cc2)cc1 | inconclusive [activator, partial curve, poor fit] | – |
| CCOc1ccc(CCNC(=O)c2ccc3ccccc3n2)cc1OCC | inconclusive [activator, partial curve, poor fit] | – |
| CN(C)S(=O)(=O)N(CC(=O)Nc1ccc(S(=O)(=O)N2CCCC2)cc1)c1ccccc1 | – | inactive: 8.22% |
| Cc1ccc(S(=O)(=O)[N-]c2nc3ccccc3nc2-n2cc[n+](Cc3ccccc3)c2)cc1 | inconclusive [activator, single point] | – |
| CCN1C(=O)/C(=C/c2ccc(C)o2)N(C)C1=S | inconclusive [activator, single point] | – |
| N#C/C(=C\c1ccccc1)C(=O)N1CCN(c2ccccc2F)CC1 | inconclusive [activator, single point] | – |
| COc1ccc(/C=C/C(=O)c2ccc(O)cc2)cc1 | inconclusive [activator, single point] | – |
| Cc1cccc2c1NC(=O)C21N2CCCC2C(C(=O)c2ccc3ccccc3c2)C12C(=O)Nc1ccccc12 (configuration not stated) | inconclusive [activator, single point] | – |
| COc1ccc(/C=C2\CCCC3C2=NN(C(=O)c2scnc2C)C3c2ccc(OC)c(OC)c2)cc1OC (configuration not stated) | – | inactive: -0.217% |
| O=C(c1ccccc1)N1CCN(C(=O)N2CCOCC2)CC1 | – | inactive: -0.731% |
| COc1ccccc1[C@H]1C(c2cccc(C)c2)=NN(c2ccccc2)[C@@H]1CO | inconclusive [activator, partial curve, poor fit] | – |
